Assay results from paper PMC10439943, “SCF^RMF mediates degradation of the meiosis-specific recombinase DMC1” (Nature Communications, 2023).
Numbering of substitutions follows the chain as printed. No constants are given. Whether binding was seen depends on the method and setting. For some of these results: Binding seen in cells or lysates may run through a third protein. Some results given as binding are weak or reduced against the parent protein; the word gives no strength. Tags and fused reporters may be left off the sequences shown. One block for each molecule: values may come before it.

The chains behind the UniProt entries cited, without tags or fusion partners.
UniProt Q39255: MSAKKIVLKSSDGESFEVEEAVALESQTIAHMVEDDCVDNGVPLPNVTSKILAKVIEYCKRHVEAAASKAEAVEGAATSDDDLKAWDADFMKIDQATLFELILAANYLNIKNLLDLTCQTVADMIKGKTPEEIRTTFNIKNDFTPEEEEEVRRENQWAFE

Tests used:
[1] = molecular target: T1, F-box domain of RMF2 (yeast two-hybrid fusion) (Arabidopsis thaliana) (UniProt Q9FGB8); experiment: two-hybrid; yeast two-hybrid, AD fusions in pGADT7 and BD fusions in pGBKT7, mated strains, selection on SD/-His-Ade-Trp-Leu with X-alpha-Gal
T1 sequence: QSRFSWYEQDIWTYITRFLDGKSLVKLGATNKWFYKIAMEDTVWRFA

[2] = molecular target: T2, F-box domain of RMF1 (yeast two-hybrid fusion) (Arabidopsis thaliana) (UniProt Q9M365); experiment: as above
T2 sequence: T1 sequence with T16S

[3] = molecular target: T3, RMF2-FLAG (Arabidopsis thaliana) (UniProt Q9FGB8); experiment: co-IP; tobacco leaves co-infiltrated with the two tagged proteins; lysis in 50 mM Tris-HCl pH 8.0, 100 mM NaCl, 10% glycerol, 0.5% NP-40; anti-FLAG (RMF1/2-FLAG) or anti-GFP (RMF1/2-GFP) magnetic beads, 4 °C overnight; western blot
T3 sequence: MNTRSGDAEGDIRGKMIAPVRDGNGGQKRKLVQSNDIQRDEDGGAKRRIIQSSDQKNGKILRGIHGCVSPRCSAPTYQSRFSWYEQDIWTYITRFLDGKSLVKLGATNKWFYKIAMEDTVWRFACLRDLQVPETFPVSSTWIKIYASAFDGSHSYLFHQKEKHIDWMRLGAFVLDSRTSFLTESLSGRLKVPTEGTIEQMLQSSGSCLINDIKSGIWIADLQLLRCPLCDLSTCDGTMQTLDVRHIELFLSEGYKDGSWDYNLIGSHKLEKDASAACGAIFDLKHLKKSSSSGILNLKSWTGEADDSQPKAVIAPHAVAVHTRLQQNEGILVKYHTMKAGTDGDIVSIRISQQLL

[4] = molecular target: T4, RMF1-FLAG (Arabidopsis thaliana) (UniProt Q9M365); experiment: as above
T4 sequence: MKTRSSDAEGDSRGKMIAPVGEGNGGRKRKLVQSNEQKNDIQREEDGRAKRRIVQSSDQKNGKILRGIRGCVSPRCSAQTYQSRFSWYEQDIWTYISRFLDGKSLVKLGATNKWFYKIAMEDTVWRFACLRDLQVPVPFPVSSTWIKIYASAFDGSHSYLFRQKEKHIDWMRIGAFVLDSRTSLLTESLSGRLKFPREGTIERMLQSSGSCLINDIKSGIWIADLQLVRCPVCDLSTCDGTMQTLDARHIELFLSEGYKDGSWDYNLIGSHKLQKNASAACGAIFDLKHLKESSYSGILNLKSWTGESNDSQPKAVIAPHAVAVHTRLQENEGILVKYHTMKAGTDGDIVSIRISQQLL

[5] = molecular target: T5, cLUC-RMF1 (Arabidopsis thaliana) (UniProt Q9M365); experiment: split reporter; split luciferase complementation (SLC) imaging in agro-infiltrated tobacco (N. benthamiana) leaves; nLUC and cLUC fusions; luciferin sprayed after 36-48 h
T5 sequence: T4 sequence

[6] = molecular target: T6, cLUC-RMF2 (Arabidopsis thaliana) (UniProt Q9FGB8); experiment: as above
T6 sequence: T3 sequence

[7] = molecular target: T7, RMF1 BiFC fusion used with ASK1 (Arabidopsis thaliana) (UniProt Q9M365); experiment: split reporter; BiFC with nYFP and cYFP fusions in agro-infiltrated tobacco leaves, confocal microscopy after 36-48 h
T7 sequence: T4 sequence

[8] = molecular target: T8, RMF2 BiFC fusion used with ASK1 (Arabidopsis thaliana) (UniProt Q9FGB8); experiment: as above
T8 sequence: T3 sequence

[9] = molecular target: T9, DMC1-cYFP (Arabidopsis thaliana) (UniProt Q39009); experiment: as above
T9 sequence: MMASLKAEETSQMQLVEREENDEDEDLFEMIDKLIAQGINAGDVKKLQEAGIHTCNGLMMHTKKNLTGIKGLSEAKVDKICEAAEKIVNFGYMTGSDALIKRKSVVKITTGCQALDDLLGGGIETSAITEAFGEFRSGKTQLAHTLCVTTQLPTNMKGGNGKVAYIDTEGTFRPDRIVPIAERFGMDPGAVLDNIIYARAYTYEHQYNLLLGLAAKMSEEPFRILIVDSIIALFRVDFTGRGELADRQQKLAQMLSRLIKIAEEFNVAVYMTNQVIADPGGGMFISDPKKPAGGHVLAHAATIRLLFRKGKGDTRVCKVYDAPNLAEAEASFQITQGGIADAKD

[10] = molecular target: T10, RAD51 fused to nLUC (Arabidopsis thaliana) (UniProt P94102); experiment: split reporter; split luciferase complementation (SLC) imaging in agro-infiltrated tobacco (N. benthamiana) leaves; nLUC and cLUC fusions; luciferin sprayed after 36-48 h
T10 sequence: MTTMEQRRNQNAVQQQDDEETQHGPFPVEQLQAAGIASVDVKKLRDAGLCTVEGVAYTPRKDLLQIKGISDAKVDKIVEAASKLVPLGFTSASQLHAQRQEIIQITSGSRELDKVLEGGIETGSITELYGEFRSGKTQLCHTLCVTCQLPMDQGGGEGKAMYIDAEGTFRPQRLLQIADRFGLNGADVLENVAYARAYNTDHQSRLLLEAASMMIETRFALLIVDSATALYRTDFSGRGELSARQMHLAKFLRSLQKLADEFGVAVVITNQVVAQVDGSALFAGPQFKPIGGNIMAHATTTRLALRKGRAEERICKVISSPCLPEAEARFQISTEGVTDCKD

[11] = molecular target: T11, nLUC-DMC1 (Arabidopsis thaliana) (UniProt Q39009); experiment: as above
T11 sequence: T9 sequence

[12] = molecular target: T12, RMF2-GFP (Arabidopsis thaliana) (UniProt Q9FGB8); experiment: co-IP; tobacco leaves co-infiltrated with the two tagged proteins; lysis in 50 mM Tris-HCl pH 8.0, 100 mM NaCl, 10% glycerol, 0.5% NP-40; anti-FLAG (RMF1/2-FLAG) or anti-GFP (RMF1/2-GFP) magnetic beads, 4 °C overnight; western blot
T12 sequence: T3 sequence

[13] = molecular target: T13, RMF1-GFP (Arabidopsis thaliana) (UniProt Q9M365); experiment: as above
T13 sequence: T4 sequence

- binding [3]: binds
- binding [4]: binds
Molecule: ASK1-MYC (from UniProt Q39255 1-160)

- binding [10]: no binding
- binding [11]: binds
B2: cLUC-RMF1 (protein, UniProt Q9M365 1-359)
chain: T4 sequence

- binding [12]: binds
- binding [13]: binds
B3: SUMO-HIS-DMC1 (natural protein, Arabidopsis thaliana, UniProt Q39009 1-344, looked up)
chain: T9 sequence
notes: DMC1, meiosis-specific RecA-family recombinase, Arabidopsis thaliana, AGI At3G22880; CDS cloned into pSUMO (on pET28a); also called At3G22880; not shown: SUMO, N-terminal, kept; HIS, N-terminal, kept

- binding [10]: no binding
- binding [11]: binds
B5: cLUC-RMF2 (protein, UniProt Q9FGB8 1-355)
chain: T3 sequence

Second part, the molecule before the results:

Molecule: ASK1 (yeast two-hybrid fusion) (from UniProt Q39255 1-160)
- binding [1]: binds
- binding [2]: binds

Molecule: ASK1 fused to nLUC (from UniProt Q39255 1-160)
- binding [5]: binds
- binding [6]: binds

Molecule: ASK1 BiFC fusion (from UniProt Q39255 1-160)
- binding [7]: binds
- binding [8]: binds

B1: nYFP-RMF1 (protein, UniProt Q9M365 1-359)
chain: T4 sequence
- binding [9]: binds

B4: RMF2-nYFP (protein, UniProt Q9FGB8 1-355)
chain: T3 sequence
- binding [9]: binds
